Data: PubChem BioAssay AID624417 (National Center for Advancing Translational Sciences (NCATS), 2012)
Among all 410,000 compounds or so, about 6,400 (1.6%) were called active. The inconclusive results got no clear call from the source; some entries with a clear call stand among them for comparison. The call rests on the fitted dose curve; in most records, active means well fitted inhibition curve with a large enough effect; inconclusive means small, poorly fitted or top-dose-only effect; inactive means no such curve, though single readings can be large or run the other way. A potency beside an inconclusive call is a rough fit, not a confirmed value.

Each compound was assayed against Glucagon-like peptide 1 receptor (Homo sapiens) (UniProt P43220) (assay: qHTS of GLP-1 Receptor Inverse Agonists (Inhibition Mode)). Details: HEK293 GLP-1R CRE-luciferase, luminescence, 24 h, GLP-1R form is constitutively active; activity change, negative = inhibition: at 38.3 µM (top of the series) unless noted.
Outline: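 Luminescence readout: a drop in cAMP-driven luciferase signal flags inverse agonism at a constitutively active GLP-1R stably expressed in HEK293. Compound exposure lasted 24 hr at 37 deg C, 5% CO2.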
Further: nearly all actives have a fitted effect of over 55% in size.
On the % scale 0 is the no-effect control and ±100 the full control effect; potency means the concentration at half of the fitted maximal effect; tags describe the fitted curve by direction and shape.

UniProt P43220, sequence (P43220 whole entry, looked up): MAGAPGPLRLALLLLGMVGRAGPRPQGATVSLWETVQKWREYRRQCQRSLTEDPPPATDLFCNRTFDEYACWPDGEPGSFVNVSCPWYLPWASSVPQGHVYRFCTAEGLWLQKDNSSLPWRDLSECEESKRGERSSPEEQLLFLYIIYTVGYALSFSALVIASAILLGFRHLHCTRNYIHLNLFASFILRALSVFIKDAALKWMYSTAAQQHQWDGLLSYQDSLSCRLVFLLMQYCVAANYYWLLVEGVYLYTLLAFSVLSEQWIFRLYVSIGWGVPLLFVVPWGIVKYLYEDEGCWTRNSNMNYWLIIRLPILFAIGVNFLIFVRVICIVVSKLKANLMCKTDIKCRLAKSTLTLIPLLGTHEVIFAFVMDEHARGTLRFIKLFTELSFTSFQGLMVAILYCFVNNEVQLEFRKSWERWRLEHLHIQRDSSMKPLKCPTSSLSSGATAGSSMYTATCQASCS

Potency, active:
C=CCNC(=O)c1c(CSc2ccc(Cl)cc2)noc1C(=O)NCc1ccccc1 7.94 µM

Potency, inconclusive:
CC1CCN(C(=O)c2ccc3c(=O)n4c(nc3c2)CCCCC4)CC1 5.01 µM [inhibitor, full curve]
CN(C)c1ccc(-c2ccnc3c2CC(C)(C(=O)Nc2cccc(OC(F)(F)F)c2)O3)cc1 (stereo not drawn) 11.2 µM [inhibitor, partial curve, poor fit]
O=C(C1CC1)N1N=C(c2cccc(Br)c2)CC1(O)C(F)(F)F (stereo not drawn) 3.16 µM [inhibitor, partial curve, poor fit]
Cc1ccc(CSCC(=O)Nc2cc(S(=O)(=O)N3CCOCC3)ccc2OCC(F)(F)F)cc1 28.2 µM [inhibitor, single point]
CCN1CCCC1CN(Cc1cc2ccc(C)cc2[nH]c1=O)C(=S)Nc1ccc(OC)cc1 (stereo not drawn) 28.2 µM [inhibitor, single point]
O=C(Nc1ccccc1C(=O)N1CCN(Cc2ccccc2)CC1)c1ccc(F)cc1 22.4 µM [inhibitor, single point]
O=C(C1=C[C@H](c2ccc(Br)cc2)C[C@H](OCc2ccc(CO)cc2)O1)N1CCN(Cc2ccc3c(c2)OCO3)CC1 31.6 µM [inhibitor, partial curve, poor fit]
O=C(OCC(=O)N(CCc1ccccc1)Cc1ccccc1)c1ccccc1[N+](=O)[O-] 11.2 µM [inhibitor, partial curve, poor fit]
COC(=O)c1cc(C(=O)NC(C)C2CC3CCC2C3)cc([N+](=O)[O-])c1 (stereo not drawn) 11.2 µM [inhibitor, partial curve, poor fit]
CCN(CC(=O)Nc1ccc2c(c1)OCCO2)C(=O)/C=C/c1ccc([N+](=O)[O-])cc1 10 µM [inhibitor, single point]
COc1ccc(-c2csc(NC(=O)c3ccc(C(C)(C)C)cc3)c2C(=O)O)cc1 10 µM [inhibitor, partial curve, poor fit]
O=C(O)CC1=C(O)C(=O)N(c2ccccc2)C1c1ccc(Cl)cc1 (stereo not drawn) 2 µM [inhibitor, full curve, poor fit]
Cc1cccc(N2CCN(C(=O)c3cc(S(=O)(=O)N4CCCC4)cn3C)CC2)c1C 7.08 µM [inhibitor, partial curve, poor fit]
COc1ccc(-c2ccoc2)cc1[C@H]1[C@H]2C=CC[C@@H](C)[C@@H]2C(=O)N1Cc1ccccc1 11.2 µM [inhibitor, partial curve, poor fit]
CCOC(=O)N1CCc2c(sc3ncn(Cc4ccc(F)cc4)c(=O)c23)C1 8.91 µM [inhibitor, partial curve, poor fit]
COc1ccc(CC(N)c2csc(NC(=O)Nc3ccc(C(C)C)cc3)n2)cc1 (stereo not drawn) 25.1 µM [inhibitor, single point]
Cc1ccc(NC(=O)c2cc(S(=O)(=O)N3CCc4ccccc43)cn2C)cc1 11.2 µM [inhibitor, partial curve, poor fit]
O=c1c2c3c(sc2n(CCN2CCCC2)c(=O)n1Cc1ccccc1)CCCCC3 6.31 µM [inhibitor, partial curve, poor fit]
O=C(Nc1ccccc1)N(Cc1cccs1)c1ccc(F)cc1 28.2 µM [inhibitor, single point]
Cn1cc(CNCC2CCCO2)c(-c2ccc(Oc3ccccc3)cc2)n1 (stereo not drawn) 28.2 µM [inhibitor, single point]
COc1ccc(CC(=O)N(Cc2ccccc2)c2ccc(C)cc2)cc1OC 31.6 µM [inhibitor, single point]
Cc1ccc(CNC(=O)Nc2cccs2)cc1 10 µM [inhibitor, single point]
C/C(=N\NC(=O)c1ccccc1)c1ccccc1Br 17.8 µM [inhibitor, partial curve, poor fit]
CCc1ccc(NC(=O)C2=CC(c3ccc(OC)c(OC)c3)=NS(=O)(=O)N2C)cc1 11.2 µM [inhibitor, partial curve, poor fit]
Cc1ccc2onc(CC(=O)Nc3cccc(C(F)(F)F)c3)c2c1 11.2 µM [inhibitor, single point]
Cc1ccc(NC(=S)N(Cc2cccs2)Cc2cc3cc(C)cc(C)c3[nH]c2=O)cc1 0.398 µM [inhibitor, full curve, poor fit]
CN(C)C(CNC(=O)CCC(=O)c1ccc(Br)cc1)c1ccccc1 (stereo not drawn) 31.6 µM [inhibitor, partial curve, poor fit]
COc1cccc(-c2nnc(SCC(=O)N3CCCc4ccccc43)o2)c1 11.2 µM [inhibitor, partial curve, poor fit]
CCOc1ccc(S(=O)(=O)Nc2ccc3oc(C)c(C(=O)OC(C)C)c3c2)cc1 11.2 µM [inhibitor, single point]
CCOC(=O)C(NC(=O)c1ccccc1)(OCc1ccc(F)cc1)C(F)(F)F (stereo not drawn) 11.2 µM [inhibitor, single point]
O=C(Cc1ccccc1)Nc1cc(C(=O)c2ccccc2)ccc1N1CCOCC1 12.6 µM [inhibitor, single point]
O=S(=O)(NCc1csc(-c2cccs2)n1)c1cccc(C(F)(F)F)c1 12.6 µM [inhibitor, partial curve, poor fit]
Cc1ccc(S(=O)(=O)Nc2c(NC3CCCCC3)c3ccccc3oc2=O)c(C)c1 28.2 µM [inhibitor, single point]
Nc1nc2ccc(Cl)cc2cc1C(=O)NCCc1ccc(O)cc1 10 µM [inhibitor, partial curve, poor fit]
Cc1cc([N+](=O)[O-])cc(C)c1OCC(=O)N/N=C/c1ccc(OC(=O)c2ccccc2Br)cc1 11.2 µM [inhibitor, single point]
O=C1C(Cl)=C(Nc2ccc3cn[nH]c3c2)C(=O)c2ccccc21 8.91 µM [inhibitor, partial curve, poor fit]
COc1ccccc1NCc1cccn1-c1nnc(N2CCCCCC2)s1 11.2 µM [inhibitor, single point]
COC(=O)c1ccc(NC(=O)CC2Nc3cc(C)c(C)cc3NC2=O)cc1 (stereo not drawn) 28.2 µM [inhibitor, single point]
COc1ccccc1N1CCN(CC(=O)Nc2ccccc2C(=O)NC(C)c2ccccc2)CC1 (stereo not drawn) 28.2 µM [inhibitor, single point]
Cc1ccc(NC(=O)c2nn(C34CC5CC(CC(C5)C3)C4)cc2[N+](=O)[O-])cc1 22.4 µM [inhibitor, single point]
COc1ccc(C(=O)N2CCN(c3nc(C4CC4)nc4sc(C)c(C)c34)CC2)cc1 7.08 µM [inhibitor, partial curve, poor fit]
CCOC(=O)C1=CCN(S(=O)(=O)c2ccc(F)cc2)C1c1ccc(Cl)c(Cl)c1 (stereo not drawn) 28.2 µM [inhibitor, single point]
COc1cccc(N2CCc3c(C)nc4ccc(Cl)cc4c32)c1 11.2 µM [inhibitor, single point]
CCC1CN(C(=O)Nc2cc(C)ccc2OC)c2cc(Cl)ccc2O1 (stereo not drawn) 28.2 µM [inhibitor, single point]
COc1ccc(C(N)c2csc(NC(=O)Nc3ccccc3C(C)(C)C)n2)cc1 (stereo not drawn) 22.4 µM [inhibitor, single point]
CCOC(=O)C1=C(Nc2ccccc2)CC(C)(O)C(C(=O)OCC)C1c1ccc(Br)cc1 (stereo not drawn) 10 µM [inhibitor, partial curve]
CCOC(=O)C1(CCCc2ccccc2)CCN(C(=O)c2cc(C)nn2CC)CC1 17.8 µM [inhibitor, single point]
COC(=O)c1ccc(CNC(=O)COC(=O)c2ccccc2-c2ccccc2)cc1 28.2 µM [inhibitor, single point]
COc1ccc(-n2cc(CN3CCC(OC)CC3)c(-c3cccc(F)c3)n2)cc1 8.91 µM [inhibitor, single point]
O=C(CN1CCN(C(c2ccccc2)c2ccccc2)CC1)NCc1ccccc1 4.47 µM [inhibitor, full curve]
O=C1C=C(c2ccc3ccccc3c2)C[C@@H](c2ccc(Cl)cc2)C1 28.2 µM [inhibitor, single point]

Activity change, negative = inhibition, inactive:
CSC1=NC2(CCN(C(=O)NC3CCCCC3)CC2)N=C1c1ccc(C)cc1 5.8%
COCCCNCCOCCOc1ccccc1-c1ccccc1 0%
C=CCn1c(SCC(=O)Nc2ccc(Br)cc2)nc(O)cc1=O -5.65%
Cc1cc(C)cc(OCC(=O)NC(Cc2c[nH]c3ccccc23)C(=O)O)c1 (stereo not drawn) 11.9%
Cc1cc(C)n(-c2nc3ccccc3nc2Nc2ccc(Cl)c(Cl)c2)n1 10.3%
CC(C)(C)OC(=O)N1CCC(NC(=O)c2nc[nH]c2C(=O)N2CCN(c3ccccc3)CC2)CC1 -12.6%
